Experimental data published in the supplement of paper PMC3334620.
The full ranking holds about 33,000 sequences; the median of “E-score (-0.5 to 0.5)” is about -0.011, and the highest 2% start at about 0.28. The list shows a part of the results.

biological target: T1, Gcr1 (UniProt P07261); assay: PBM E-score (8-mer binding enrichment) (E-score (-0.5 to 0.5)); higher = stronger / more preferred TF binding; most listed sequences are background and not binding sites; conditions: protein concentration: 100 nM; construct: GST-full length
T1 sequence: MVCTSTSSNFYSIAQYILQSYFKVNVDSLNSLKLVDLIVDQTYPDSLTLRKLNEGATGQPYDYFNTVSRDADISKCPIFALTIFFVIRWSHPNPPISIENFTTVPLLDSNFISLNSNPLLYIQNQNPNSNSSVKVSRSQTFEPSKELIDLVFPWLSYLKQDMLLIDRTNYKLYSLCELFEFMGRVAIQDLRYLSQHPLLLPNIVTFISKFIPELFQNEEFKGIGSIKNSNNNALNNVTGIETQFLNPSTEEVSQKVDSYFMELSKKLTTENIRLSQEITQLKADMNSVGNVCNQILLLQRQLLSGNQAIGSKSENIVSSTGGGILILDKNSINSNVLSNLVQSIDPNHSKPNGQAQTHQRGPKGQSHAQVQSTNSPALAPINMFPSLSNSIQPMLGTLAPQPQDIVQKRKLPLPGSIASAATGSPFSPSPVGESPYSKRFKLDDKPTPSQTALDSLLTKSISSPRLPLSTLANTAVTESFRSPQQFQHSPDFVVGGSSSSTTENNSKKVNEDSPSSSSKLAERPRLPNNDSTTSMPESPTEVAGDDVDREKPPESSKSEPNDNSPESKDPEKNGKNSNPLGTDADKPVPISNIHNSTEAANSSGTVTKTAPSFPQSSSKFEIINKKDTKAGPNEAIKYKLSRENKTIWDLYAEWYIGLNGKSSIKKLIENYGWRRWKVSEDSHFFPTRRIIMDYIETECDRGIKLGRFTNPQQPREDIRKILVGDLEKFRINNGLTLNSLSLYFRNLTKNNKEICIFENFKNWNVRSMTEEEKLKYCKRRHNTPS
How it was run: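 Detection of bound protein used fluorescent anti-GST, with scans normalised by masliner. The proteins were GST-tagged yeast transcription factors applied at about 100-200 nM to universal all-10-mer Agilent arrays made double-stranded by primer extension. Each ungapped eight-base word, pooled with its reverse complement, was scored with an E-score from the Universal PBM Analysis Suite.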

Row | Sequence | PBM E-score
1 | GAACACAA | -0.0332
2 | AGCGCACG | -0.108
3 | ACAGTAGG | -0.0472
4 | TAGGGAGA | 0.026
5 | AGGCGTGC | -0.044
6 | AGACTATC | -0.146
7 | ATTCAGTG | 0.0914
8 | CACTGACC | -0.258
9 | GTAACAAA | -0.00252
10 | CTCTCAAC | 0.0891
11 | GCCTCTTA | 0.0777
12 | CTTCGGTA | -0.00892
13 | AGTTCGAA | -0.0147
14 | CGTGAACC | -0.103
15 | ACCTCACG | -0.0561
16 | GGTATCGA | 0.00098
17 | CTAATGCC | 0.0499
18 | AGAGGATG | 0.315
19 | AACACAGG | 0.094
20 | CATATAAG | 0.0899
21 | ACCGTATC | -0.0123
22 | CTTCGCTA | -0.0659

Row | Sequence | PBM E-score
23 | AGACAAAT | 0.0622
24 | TCAGAGAA | 0.0257
25 | AGGCTAAG | -0.203
26 | CGATTACC | -0.159
27 | GGTCGCAC | -0.221
28 | CGACAACA | 0.00406
29 | ATTTTCCA | 0.122
30 | CATTGACC | -0.187
31 | ACTTCCAT | 0.145
32 | GGGTCCTA | 0.211
33 | AATACCGC | 0.118
34 | CCACTAGG | 0.287
35 | CTTCATAA | 0.108
36 | GTATCCGA | 0.208
37 | GAAGTCGC | 0.182
38 | CCACGGAA | 0.127
39 | ACGCCTTA | -0.0684
40 | GAGAAGCC | 0.395
41 | TGCCCGAA | 0.0317
42 | GCTGTGCC | -0.187
43 | CCAATAAG | 0.0215
44 | GAGCTACC | 0.163

Row | Sequence | PBM E-score
45 | GCCTGTCA | 0.0994
46 | CCTCTGGA | 0.00889
47 | ACATAAGG | 0.0545
48 | ATCGGAAT | 0.105
49 | CGCGCATA | -0.164
50 | AGGAACCG | 0.139
51 | CACGCGAC | -0.0568
52 | GGACGGTA | 0.0246
53 | AGGACGAT | -0.125
54 | AGAGCGCT | -0.0601
55 | ATCCGACG | -0.15
56 | GGTTACTA | 0.0616
57 | AACACATC | 0.03
58 | ACACCCTA | -0.021
59 | AAGCAACC | 0.0616
60 | CCGCAGCC | 0.223
61 | AGTTGAAG | 0.0719
62 | CACATAAC | -0.154
63 | AACTGACG | -0.0047
64 | CCGTTCGC | -0.227
65 | AAGAGATT | 0.08
66 | TAAGGCTA | -0.0707

Row | Sequence | PBM E-score
67 | AAGCAATG | -0.12
68 | CCTTTAAA | 0.0787
69 | ACGTAAAA | 0.207
70 | GCGACGAA | -0.0345
71 | CCCTTGTC | -0.167
72 | ATAGTGCC | -0.155
73 | GGAGATAA | -0.0396
74 | ACCTTACA | 0.156
75 | CCGCACGC | -0.109
76 | GCATCCGC | 0.251
77 | ACGCCTGC | -0.0545
78 | CCTTTTGC | -0.0203
79 | ACTTTAAG | 0.106
80 | GGTCAAAC | -0.054
81 | CCCTCGCA | -0.0325
82 | GTCGGAAC | -0.0752
83 | GCTCAGAA | -0.0813
84 | GCAACTGA | -0.162
85 | GGGATAAA | -0.0224
86 | ACACGCAG | 0.323
